# Among all 390,000 compounds or so, about 930 (0.24%) were called active. The shares of active, inactive and inconclusive entries below differ from those in the screen. Calls follow the shape of the dose curve; as a rule, active = well fitted activation curve with a large enough effect; inconclusive = small, poorly fitted or top-dose-only effect; inactive = no such curve, though single readings can be large or run the other way. Potencies beside an inconclusive call are fits to weak or partial responses and may not hold up.
# Experiment: qHTS for Suppressors of FUS Proteinopathy: Primary screen using FUS-linked yeast assay; also: nearly all actives have a fitted effect of over 55% in size;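 as to growth rescue (activation): plate controls were DMSO vehicle for no effect and reference control for full effect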
# Conditions: S. cerevisiae FUS-expressing, OD600, 24 h; Potency: growth rescue; growth rescue (activation): at 76.6 µM (top of the series)
# Method in brief: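 Restored growth of FUS-toxic S. cerevisiae, read as 600 nm absorbance after 24 h at 30C in galactose medium (starting OD 0.005). Controls CP55940 and DMSO.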
# Potency is read from the fitted curve at half-maximal effect; tags tell the direction and shape of the fitted curve.
Structure (SMILES),growth rescue (activation),Potency
O=C(Nc1nc2c(s1)CCCC2)c1cccnc1,inconclusive: 51.8% [activator],–
COc1ccc(S(=O)(=O)N2CCCCC2)cc1NC(=O)C1COc2ccccc2O1 (stereo not drawn),–,"inconclusive: 20 µM [activator, partial curve, poor fit]"
Cc1cc(N2CCN(c3cccc(C)c3C)CC2)n2cnnc2n1,–,inactive
Cc1occc1-c1nnc(SCC(=O)Nc2ccccn2)n1-c1ccccc1,–,inactive
Cc1nnc2sc(-c3ccc(NC(=O)c4ccc(-c5ccc(Cl)cc5Cl)o4)cc3)nn12,–,"inconclusive: 4.47 µM [activator, full curve]"
O=C(c1ccc2c(c1)N(Cc1ccccc1F)C(=O)c1ccccc1S2)N1CCOCC1,–,"inconclusive: 28.2 µM [activator, partial curve, poor fit]"
Cc1ccc2ccc(C(Nc3ccccc3)c3ccc(F)cc3)c(O)c2n1 (stereo not drawn),–,inactive
COC(=O)[C@]12C[C@H](CC(=O)N3CCC(c4ccccc4)CC3)C(=O)N(CCc3ccc(OC)c(OC)c3)C1=C[C@H](C1CCCC1)O[C@@H]2C,–,"inconclusive: 15.8 µM [activator, partial curve, poor fit]"
Cc1ccc(NCCC(=O)c2cccc([N+](=O)[O-])c2)cc1,–,"inconclusive: 39.8 µM [activator, single point]"
COC(=O)CCC(=O)Nc1ccc(Br)cc1,–,"inconclusive: 0.891 µM [activator, full curve, poor fit]"
CCCCCCCC/C=C\CCCCCCCC(=O)NCCc1ccc(O)c(O)c1,–,"inconclusive: 20 µM [activator, single point]"
CCc1nc2nc(C)cc(Nc3cc(Cl)ccc3C)n2n1,–,inactive
COCOc1cc(O)c2c(=O)c(OCOC)c(-c3ccc(OCOC)c(OCOC)c3)oc2c1,–,"inconclusive: 31.6 µM [activator, single point]"
COc1cc(C(=O)NNc2nc3cc4c(cc3s2)OCO4)cc(OC)c1OC,–,inactive
CCCCN(C)CCNC(=O)c1ccc(Cn2c(=O)[nH]c3cc(OC)c(OC)cc3c2=O)cc1,–,inactive
COc1ccc(-c2noc(N3CCC(C(=O)N4CCN(c5ccccc5OC)CC4)CC3)n2)cc1,–,"inconclusive: 17.8 µM [activator, partial curve, poor fit]"
O=C1c2ccccc2C(Nc2ccc3c(c2)OCCO3)N1Cc1ccc2c(c1)OCO2 (stereo not drawn),–,"inconclusive: 28.2 µM [activator, single point]"
CC[n+]1ccc(/C=C/c2ccc(N(C)C)cc2)c2ccccc21,–,"inconclusive: 22.4 µM [activator, partial curve]"
O=C(CSc1n[nH]c(-c2ccccn2)n1)Nc1ccc(F)cc1,–,"inconclusive: 3.98 µM [activator, full curve, poor fit]"
Cc1ccc(NS(=O)(=O)c2ccc(-c3cnc(C4CC4)o3)cc2)c(C)c1,–,"inconclusive: 25.1 µM [activator, partial curve]"
CCOc1ccccc1CNC(=O)Cc1ccc(NC(=O)N2CCCCc3ccccc32)cc1,–,"inconclusive: 25.1 µM [activator, single point]"

Structure (SMILES),growth rescue (activation),Potency
COc1ccc(-n2c(Cc3cccn3C)nnc2SCC(=O)Nc2ccccc2F)cc1,–,"inconclusive: 12.6 µM [activator, partial curve]"
NC(=O)CC(NC(=O)c1ccc(Br)cc1)c1ccc(NCCc2ccc(F)cc2)c([N+](=O)[O-])c1 (stereo not drawn),–,"inconclusive: 25.1 µM [activator, partial curve, poor fit]"
Cc1cccc(C2=NN(c3ccccc3)[C@@H](C(=O)N3CCOC3=O)[C@@H]2c2ccc(F)cc2)c1,–,active: 5.62 µM
COc1ccc(CN2C(=O)C(CC(=O)NC3CCCC3)CC(C(=O)N(C)C)=C2C)cc1 (stereo not drawn),–,inactive
O=C(Nc1nnc(SCCC2OCCO2)s1)C1CC(=O)N(c2ccccc2)C1 (stereo not drawn),–,"inconclusive: 50.1 µM [activator, single point]"
O=C1OCCN1C(=O)[C@H]1[C@H](c2ccc([N+](=O)[O-])cc2)C(c2ccc(F)cc2)=NN1c1ccc(Br)cc1,–,"inconclusive: 11.2 µM [activator, full curve, poor fit]"
CCN(CC)C(=O)CSc1nnc(-c2ccccn2)n1C,–,inactive
Cc1ccc(-n2ncc3c(NCc4ccco4)ncnc32)cc1C,–,inactive
CCOC(=O)[C@@H]1[C@H]2COc3ccc(Br)cc3[C@@H]2N2C(=O)N(c3ccc(Cl)cc3)C(=O)[C@@]12C,–,"inconclusive: 25.1 µM [activator, partial curve]"
COc1cc(-c2nc(-c3ccc4c(c3)-c3ccccc3S4(=O)=O)c(-c3ccccc3)[nH]2)cc(OC)c1O,–,"inconclusive: 25.1 µM [activator, partial curve, poor fit]"
CCOC(=O)[C@]12CCCC=C1N(CCC1=CCCCC1)C(=O)[C@H](CC(=O)NCCC(C)C)C2,–,inactive
COc1cccc(N2CCN(c3c4c(nc5nncn35)CCC4)CC2)c1,–,inactive
Cn1ccc(-c2ccccc2)c(C#N)c1=O,–,inactive
COc1ccc(NC(=O)N(C)[C@H]2C[C@H]3c4[nH]c5ccc(-c6cccc(C)c6)cc5c4CCN3C[C@H]2[C@H](C)O)cc1,–,"inconclusive: 50.1 µM [activator, single point]"
CCCCN1CC(c2nc3ccccc3n2CCCCOc2ccc(C)cc2C)CC1=O (stereo not drawn),–,"inconclusive: 25.1 µM [activator, partial curve, poor fit]"
CC(C)NC(=O)C1CC(=O)N(C(C)c2ccccc2)C1 (stereo not drawn),–,inactive
CCOc1cc(CCNC(=O)c2cc3sccc3n2CC)ccc1OC,–,inactive
CCC/C(C#Cc1ccsc1)=C1/c2ccccc2C(=O)N1c1ccccc1,–,"inconclusive: 50.1 µM [activator, single point]"
COc1ccc(C=Nn2c(-c3ccc(F)cc3)n[nH]c2=S)cc1OCc1ccccc1,–,inactive
COC(=O)[C@]1(Cc2ccccc2)N[C@H](c2ccc(-c3cccc(Cl)c3)cc2)[C@@H]2C(=O)N(C)C(=O)[C@@H]21,–,active: 14.1 µM
CCOc1ccccc1N(C(=O)c1snc(C(N)=O)c1N)C(C(=O)NC1CCCC1)c1cccs1 (stereo not drawn),–,"inconclusive: 15.8 µM [activator, single point]"

Structure (SMILES),growth rescue (activation),Potency
Cc1ccc(C(=O)NC2CCCCN(Cc3ccc(Cl)cc3)C2=O)c(C)c1 (stereo not drawn),–,inactive
Cc1ccc(CC(=O)Nc2nc3ccccc3s2)cc1,–,inactive
CC[C@@]12C(=O)N(c3ccc(C)cc3)C(=O)N1[C@H](c1cccc(C)c1)[C@@H]1C(=O)N(Cc3ccccc3)C(=O)[C@@H]12,–,"inconclusive: 28.2 µM [activator, partial curve]"
COC(=O)Cn1c2ccccc2c(=O)n1C(C)CBr (stereo not drawn),–,inactive
C/C(=N/NC(=S)Nc1cccc(C)c1)c1cccc([N+](=O)[O-])c1,–,"inconclusive: 25.1 µM [activator, single point]"
Cc1ccc(/C=C/C(=O)N2CCN(S(=O)(=O)c3c(C)c(C)cc(C)c3C)CC2)o1,–,"inconclusive: 25.1 µM [activator, single point]"
O=C(c1cc(=O)c2cc(Cl)ccc2o1)N(Cc1ccccc1)C1CCS(=O)(=O)C1 (stereo not drawn),–,inactive
COc1ccc(Cl)cc1NC(=O)CN(C)C(=O)c1sccc1-c1ccccc1,–,"inconclusive: 35.5 µM [activator, single point]"
CCOC(=O)c1ccc2nc(NC(=O)C(C)C)sc2c1,–,inactive
COc1ccc(N2CCN(Cc3nc4scc(-c5ccccc5)c4c(=O)[nH]3)CC2)cc1,–,"inconclusive: 11.2 µM [activator, single point]"
CN(C)c1ccccc1-c1csc(N2CCC(C(N)=O)CC2)n1,–,"inconclusive: 44.7 µM [activator, single point]"
CCOc1ccc(CN(C(=O)c2oc3cc(C)ccc3c2C)C2CCS(=O)(=O)C2)cc1 (stereo not drawn),–,"inconclusive: 14.1 µM [activator, partial curve]"
Cc1cc(C)c(NC(=O)CN(C)CC(=O)Nc2cccc(S(=O)(=O)N(C)c3ccccc3)c2)c(C)c1,–,"inconclusive: 22.4 µM [activator, partial curve, poor fit]"
O=C(c1ccc2c(c1)N(Cc1cccc(Cl)c1)C(=O)c1ccccc1S2(=O)=O)N1CCCCC1,–,"inconclusive: 39.8 µM [activator, single point]"
CCCCCN1CCCCC(NC(=O)Cc2ccccc2)C1=O (stereo not drawn),–,inactive
CC(=O)Nc1cc(-c2ccc(CO)cc2)cn2c(-c3cccc(C(F)(F)F)c3)cnc12,–,"inconclusive: 31.6 µM [activator, single point]"
Cc1cc(NS(=O)(=O)c2ccc(NC(=O)CSc3nnc(-c4ccccn4)n3-c3ccccc3)cc2)nc(C)n1,–,"inconclusive: 20 µM [activator, partial curve, poor fit]"
CS(=O)(=O)N1c2ccccc2[C@]2([C@@]34C[C@H]5C(=O)N[C@@H](Cc6ccccc6)C(=O)N5[C@@H]3N(S(C)(=O)=O)c3ccccc34)C[C@H]3C(=O)N[C@@H](Cc4ccccc4)C(=O)N3[C@H]12,–,"inconclusive: 7.08 µM [activator, partial curve]"
Cc1ccc(C)c(CC(=O)N2CCCCC2c2cc(C(=O)Nc3ccc(F)c(Cl)c3)no2)c1 (stereo not drawn),–,"inconclusive: 39.8 µM [activator, single point]"
COC(=O)c1ccc(Nc2nnc(-c3ccc(C)c(S(=O)(=O)NCC4CCCO4)c3)c3ccccc23)cc1 (stereo not drawn),–,"inconclusive: 11.2 µM [activator, partial curve]"
COc1ccc(OC)c(C(=O)Nc2c(O)ccc3ccccc23)c1,–,"inconclusive: 22.4 µM [activator, partial curve, poor fit]"

# — PubChem BioAssay AID1347120 (National Center for Advancing Translational Sciences (NCATS), 2019)
